Sequences with one replicate were seen in a single cluster, so their values are uncertain.
Each sequence was assayed on ATP (assay: switch fluorescence ratio, 500 uM ATP over buffer (Cy3 cluster intensity, sum of 5 cycles each) (fold (ratio)); higher = stronger signal-on switching upon ATP binding; sequences stand for … in TCGTCGGCAGCGTCAGATGTGTATAAGAGACAGTTTTTTTTTTTTTTTTTTTTTTTTT…TC). Conditions: aptamer strand: ATP DNA aptamer (quencher-CACCTGGGGGAGTATTGCGGAGGAAGG + anchor), 100 nM annealed; ATP concentration: 500 uM; one replicate.
Method in brief: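 Values give the fluorescence ratio for each switch-domain sequence, averaged from per-cluster ratios of summed target-cycle to summed buffer-cycle Cy3 intensity. The Cy3-labelled switching-strand clusters sat on a modified Illumina MiSeq flow-cell, were annealed to 100 nM quencher-labelled ATP aptamer, and were imaged in selection buffer, then after 15 min with 500 uM ATP at 22 °C. Five cycles ran with NaOH stripping and re-annealing between them, and clusters outside 100-1000 RFU were excluded.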
Sequence ATGACGCTCG has a switch fluorescence ratio of 1.02. In the case of ATGACTAGCG, the switch fluorescence ratio is reported as 1. ATGACTATG gave a switch fluorescence ratio of 0.945. ATGACTGAAA showed a switch fluorescence ratio of 1.03. ATGACTTGGC showed a switch fluorescence ratio of 1.03. ATGAGAGGGG was tested, and the switch fluorescence ratio was 1.18. In the case of ATGAGAGTGG, the switch fluorescence ratio is reported as 0.991. For ATGAGCGCCA, the switch fluorescence ratio was 1.04. Work on ATGAGCTCCA yielded a switch fluorescence ratio of 1.02. Work on ATGAGGATCA yielded a switch fluorescence ratio of 0.96. In the case of ATGAGGTCCG, the switch fluorescence ratio is reported as 1.03. ATGAGTCTGT was tested, and the switch fluorescence ratio was 1.04. ATGATAAGC gave a switch fluorescence ratio of 1.13. Work on ATGATATTAA yielded a switch fluorescence ratio of 1. For ATGATATTCT, the switch fluorescence ratio was 0.991. With ATGATATTGT the switch fluorescence ratio was 0.992. ATGATCCATT was tested, and the switch fluorescence ratio was 1. ATGATCTTAT was tested, and the switch fluorescence ratio was 1.01. Work on ATGATGCGTA yielded a switch fluorescence ratio of 0.959. Work on ATGATGTCTC yielded a switch fluorescence ratio of 0.977. ATGCAAAATT gave a switch fluorescence ratio of 1.01. With ATGCAGTCGG the switch fluorescence ratio was 1. ATGCAGTTGT was tested, and the switch fluorescence ratio was 1.01. Work on ATGCCAAGCG yielded a switch fluorescence ratio of 1.02. Sequence ATGCCCAGAA has a switch fluorescence ratio of 0.933. ATGCCCGTAG gave a switch fluorescence ratio of 0.994. ATGCCGCGTA was tested, and the switch fluorescence ratio was 1.04. ATGCCGGACA showed a switch fluorescence ratio of 1.03. Sequence ATGCGAGAGT has a switch fluorescence ratio of 0.999. For ATGCGATGTT, the switch fluorescence ratio was 0.97. With ATGCGCTAC the switch fluorescence ratio was 5.17. Sequence ATGCGCTAGG has a switch fluorescence ratio of 1.02. With ATGCGGACCT the switch fluorescence ratio was 0.991. ATGCGGCACA showed a switch fluorescence ratio of 1.01. ATGCGGCATG showed a switch fluorescence ratio of 1.01. ATGCGGCGCT showed a switch fluorescence ratio of 1.02. For ATGCGTAGAG, the switch fluorescence ratio was 1.02. ATGCGTGTGT showed a switch fluorescence ratio of 1.05. For ATGCTAGGGG, the switch fluorescence ratio was 1.01. Sequence ATGCTATGGA has a switch fluorescence ratio of 0.979. ATGCTCTGCG showed a switch fluorescence ratio of 1. ATGCTGACGG showed a switch fluorescence ratio of 1.05. Sequence ATGCTGAGTT has a switch fluorescence ratio of 1.03. Sequence ATGCTGATAT has a switch fluorescence ratio of 0.993. ATGCTGCGGA showed a switch fluorescence ratio of 1.02. With ATGCTTGACT the switch fluorescence ratio was 0.984. ATGCTTGCCT showed a switch fluorescence ratio of 1.02. Work on ATGGAAAAAA yielded a switch fluorescence ratio of 1.03. ATGGAAGTGT showed a switch fluorescence ratio of 1.01. Work on ATGGACAGAA yielded a switch fluorescence ratio of 1. ATGGACGATG was tested, and the switch fluorescence ratio was 1.01. Work on ATGGACGATT yielded a switch fluorescence ratio of 0.978. In the case of ATGGATGAAG, the switch fluorescence ratio is reported as 0.973. For ATGGATTATA, the switch fluorescence ratio was 0.976. Sequence ATGGCAAAAC has a switch fluorescence ratio of 1.09. ATGGCACATC showed a switch fluorescence ratio of 1.45. For ATGGCACGAT, the switch fluorescence ratio was 1.08. For ATGGCACTGA, the switch fluorescence ratio was 1.04. ATGGCATTTA showed a switch fluorescence ratio of 1.03. For ATGGCATTTT, the switch fluorescence ratio was 1.02. ATGGCCCAGG showed a switch fluorescence ratio of 2.33. ATGGCGAGTA gave a switch fluorescence ratio of 0.949. ATGGCGTGCA was tested, and the switch fluorescence ratio was 1.02. Sequence ATGGCTAAAT has a switch fluorescence ratio of 1.01. Work on ATGGCTATGC yielded a switch fluorescence ratio of 0.974. ATGGCTGTTA was tested, and the switch fluorescence ratio was 1.03. ATGGGAGCG showed a switch fluorescence ratio of 0.927. ATGGGATATA was tested, and the switch fluorescence ratio was 0.933. In the case of ATGGGCAACA, the switch fluorescence ratio is reported as 1.07. ATGGGCAATG was tested, and the switch fluorescence ratio was 1.07. In the case of ATGGGCCTCC, the switch fluorescence ratio is reported as 1.02. With ATGGGCGCCT the switch fluorescence ratio was 0.998. ATGGGGAACG was tested, and the switch fluorescence ratio was 1.04. ATGGGGATCT was tested, and the switch fluorescence ratio was 0.976. Sequence ATGGGGCGAG has a switch fluorescence ratio of 1.01. Work on ATGGGTCATT yielded a switch fluorescence ratio of 1.01. ATGGGTGCCC gave a switch fluorescence ratio of 1.01. In the case of ATGGGTTGAC, the switch fluorescence ratio is reported as 0.961. Sequence ATGGGTTGG has a switch fluorescence ratio of 0.989. ATGGTAAGTC was tested, and the switch fluorescence ratio was 0.998. Work on ATGGTAATAT yielded a switch fluorescence ratio of 1.01. With ATGGTAGCGT the switch fluorescence ratio was 0.977. For ATGGTCGCAC, the switch fluorescence ratio was 0.997. ATGGTGTTAC showed a switch fluorescence ratio of 1.02. ATGGTTCCTA was tested, and the switch fluorescence ratio was 0.979. In the case of ATGGTTCTTG, the switch fluorescence ratio is reported as 1.01. In the case of ATGGTTGAGA, the switch fluorescence ratio is reported as 0.989. With ATGGTTTCCA the switch fluorescence ratio was 1.06. With ATGGTTTTTA the switch fluorescence ratio was 0.965. ATGTAACATA was tested, and the switch fluorescence ratio was 0.985. ATGTAAGGAA gave a switch fluorescence ratio of 1.03. ATGTAAGTTG was tested, and the switch fluorescence ratio was 1.01. For ATGTAATTGT, the switch fluorescence ratio was 1.01. For ATGTACGGAG, the switch fluorescence ratio was 0.997. Sequence ATGTACTT has a switch fluorescence ratio of 1.08. ATGTACTTTT showed a switch fluorescence ratio of 1.06. In the case of ATGTAGATTA, the switch fluorescence ratio is reported as 1. With ATGTAGCTCA the switch fluorescence ratio was 0.968. ATGTAGGC gave a switch fluorescence ratio of 1.01. For ATGTAGGGCG, the switch fluorescence ratio was 0.968.

From the supplement of paper PMC10126150
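Further: ATP exposure 15 min at 22 °C before imaging.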
